# Test results from PMC4336329 (PLoS ONE, 2015).
# About 14,000 (4.5%) of roughly 310,000 compounds showed an effect of 50% or more. The effect is printed as a negative number. The list shows a part of the results.
# Target: human ether-à-go-go-related gene (hERG) potassium channel (human, UniProt Q12809)
# Test: primary screen, population patch clamp on CHO cells stably expressing hERG
# 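Also: peak tail current of the secondary pulse compared with the same well before compound.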
# human ether-à-go-go-related gene (hERG) potassium channel, sequence (Q12809 whole entry, looked up): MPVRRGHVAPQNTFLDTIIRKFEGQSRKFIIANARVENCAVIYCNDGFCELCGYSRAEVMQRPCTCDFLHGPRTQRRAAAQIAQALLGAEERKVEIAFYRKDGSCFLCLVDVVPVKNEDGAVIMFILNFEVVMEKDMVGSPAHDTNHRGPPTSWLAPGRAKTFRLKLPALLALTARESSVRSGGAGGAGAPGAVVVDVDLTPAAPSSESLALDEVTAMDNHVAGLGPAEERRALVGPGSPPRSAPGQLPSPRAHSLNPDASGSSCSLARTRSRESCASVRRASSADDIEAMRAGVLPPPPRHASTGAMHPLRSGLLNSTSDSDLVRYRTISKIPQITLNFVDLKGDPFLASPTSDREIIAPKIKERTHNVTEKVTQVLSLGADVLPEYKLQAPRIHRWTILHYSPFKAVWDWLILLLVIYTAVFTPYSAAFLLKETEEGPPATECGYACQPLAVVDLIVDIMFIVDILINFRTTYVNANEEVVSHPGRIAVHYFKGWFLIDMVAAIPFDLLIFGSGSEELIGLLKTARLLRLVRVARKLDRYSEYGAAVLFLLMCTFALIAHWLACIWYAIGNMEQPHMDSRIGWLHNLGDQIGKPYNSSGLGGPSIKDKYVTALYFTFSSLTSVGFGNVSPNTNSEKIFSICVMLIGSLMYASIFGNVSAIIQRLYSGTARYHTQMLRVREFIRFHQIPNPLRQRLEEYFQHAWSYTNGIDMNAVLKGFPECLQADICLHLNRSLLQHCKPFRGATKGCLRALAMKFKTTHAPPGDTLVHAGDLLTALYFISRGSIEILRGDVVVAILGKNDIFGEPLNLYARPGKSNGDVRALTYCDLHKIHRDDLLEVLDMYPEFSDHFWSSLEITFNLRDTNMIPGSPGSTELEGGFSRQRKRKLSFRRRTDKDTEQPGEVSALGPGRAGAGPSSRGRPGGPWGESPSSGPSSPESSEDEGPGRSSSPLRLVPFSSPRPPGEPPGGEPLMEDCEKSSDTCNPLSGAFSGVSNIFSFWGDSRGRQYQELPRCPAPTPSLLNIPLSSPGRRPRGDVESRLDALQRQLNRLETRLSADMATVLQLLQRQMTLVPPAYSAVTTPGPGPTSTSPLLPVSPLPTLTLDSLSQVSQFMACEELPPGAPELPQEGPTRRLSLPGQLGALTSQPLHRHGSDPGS
row,Structure (SMILES),"hERG current change (%, negative = inhibition) at 10uM [%]"
1,CCCC(C)NC(=O)Cn1c(=O)c2c(ncn2CCC(C)C)n(Cc2ccccc2)c1=O (stereo not shown),5.18
2,Cc1c[n+](CC(=O)c2ccccc2)c(C)cn1.[Br-],5.14
3,CC(C)CNS(=O)(=O)c1ccc(S(=O)(=O)N2CCC3(CC2)OCCO3)cc1.O=C(O)C(=O)O,0.99
4,Cc1ccc(NC(=S)N(Cc2ccco2)C2CCN(C(C)C)CC2)cc1,-26.5
5,O=C(CN1CCCN(Cc2ccc(F)cc2Cl)C1=O)NC1CCCCCCC1,-29
6,COC(=O)c1cc(Br)c(=O)n(CCc2ccc(O)cc2)c1.Cl,-10
7,COc1ccc(CCNC(=O)CCc2ccc(S(=O)(=O)NC(C)C)cc2)cc1,-13.1
8,Cc1cccc2c1cnn2C(=O)CCC(=O)N1CCC(C)CC1,-14.1
9,FC(F)(F)c1ccccc1CNCCc1c[nH]c2ccccc12.O=C(O)C(=O)O,-9.6
10,O=C(CCCN1C(=O)c2ccccc2C1=O)NCCC1=CCCCC1,-3.16
11,COc1cc(C2=NOC(C(=O)NC3CCCCC3)C2)cc(OC)c1OC (stereo not shown),-8.08
12,FC(F)Sc1ccc(NC(=S)NC(c2ccccc2)c2ccccc2)cc1,7.76
13,COc1cc(/C=C2\N=C(c3c(-c4ccccc4)noc3C)OC2=O)ccc1OC(C)=O,7.86
14,O=C(COc1ccccc1Cl)N1CCN(c2ccc([N+](=O)[O-])c(N3CCOCC3)c2)CC1,-25.7
15,COc1cccc(C2C3=C(Nc4[nH]n(-c5ccccc5)c(=O)c42)c2ccccc2C3=O)c1 (stereo not shown),9.64
16,CC1(c2cccc(Br)c2)NC(=O)N(CC(=O)Nc2ccc(S(N)(=O)=O)cc2)C1=O (stereo not shown),27.5
17,COC(=O)c1sc2ccccc2c1-n1cccc1C(=O)C(=O)Nc1ccc(OC)cc1,-3.9
18,CCCS(=O)(=O)N1CCCC(c2nc(-c3cccc(OC)c3)no2)C1 (stereo not shown),-9.63
19,COc1cccc(/C=C(/C#N)c2ccc(F)cc2)c1OCc1cccc(C(=O)O)c1,11.4
20,Cc1ccn2c(=O)nc(SCC(=O)c3ccccc3)nc2c1,-17.5
21,COC(=O)c1c(NC(=O)c2ccc([N+](=O)[O-])o2)sc2c1CCN(C(C)C)C2.Cl,-25.1
22,CC(=O)C1=C(O)C(=O)N(c2ccc(Br)cc2)C1c1cccc([N+](=O)[O-])c1 (stereo not shown),24.5
